Source: PubChem BioAssay AID1508623 (National Center for Advancing Translational Sciences (NCATS), 2021)
The campaign covered roughly 48,000 compounds. About 450 (0.94%) were called active. About 19% were inconclusive and are not listed. Calls follow the shape of the dose curve; as a rule, active = well fitted inhibition curve with a large enough effect; inconclusive = small, poorly fitted or top-dose-only effect; inactive = no such curve, though single readings can be large or run the other way. The list shows a part of the results.

test: Primary qHTS for Identification of Small Molecule Inhibitors of Huntingtin Promoter Activity; details: HEK293 HTT promoter firefly luciferase reporter (activity 0% = vehicle and -100% = no light), 24 h; series mostly up to 57.5 µM; activity change, negative = inhibition: at the top concentration; also: nearly all actives have a fitted effect of over 50% in size
Excerpt: Assay Provider: Russell L. Margolis M.D.
Department Neurology, Johns Hopkins University School of Medicine, Baltimore, MD
Huntington's Disease (HD) is a neurodegenerative disorder caused by a CAG repeat expansion in exon 1 of huntingtin (HTT). While there are currently no disease-modifying treatments for HD, recent efforts have focused on development of nucleotide-based therapeutics to lower HTT expression. As an alternative to siRNA or oligonucleotide methods, we hypothesized that suppression of HTT expression might be accomplished by small molecules that either (1) directly decrease HTT expression by suppressing HTT promoter activity or (2) indirectly decrease HTT expression by increasing the promoter activity of HTT-AS, the gene antisense to HTT that appears to inhibit expression of HTT.
We developed and employed a high throughput screen for modifiers of HTT and HTT-AS promoter activity using luminescent reporter HEK293 cells; of the 52,041 compounds tested, we identified 898 replicable hits. We used a rigorous stepwise approach to assess compound toxicity and the capacity of the compounds to specifically lower huntingtin protein in 5 different cell lines, including HEK293 cells, HD lymphoblastoid cells, mouse primary neurons, HD iPSCs differentiated into cortical-like neurons, and HD hESCs. We found no compounds which were able to lower huntingtin without lowering cell viability in all assays, though the potential efficacy of a few compounds at non-toxic doses could not be excluded.
SEQUENCE No. (1, 2, 3, etc.); […] (e.g., Cells, Incubation, Reagent, etc.); VALUE and DESCRIPTION.
1; Reagent; 4 uL; 2,500 Hek293 luciferase reporter cells per wells
3; Compound; 23 nL; Control inhibitor / compound library
5; Reagent; 2.5 uL; Firefly Luc reagent; Dual-Glo Luciferase Reporter Assay System (Promega)
6; Time; 10 min; room temperature incubation
7; Detection; Luminescence; FLuc
NOTES (numbers refer to sequence above)
1; High-throughput screening, measuring luminescence from a Hek293 luciferase reporter, was performed in 1,536 well white-walled tissue-culture treated plates. 2,500 cells were plated in 4 µL of Opti-MEM per well using a Multidrop Combi Reagent Dispenser (ThermoFisher).
2; Assay plates were cultured for 24 hours.
3; Control inhibitor (PTC124; final concentration of 50 uM) and compound library (at final concentrations of 460 nM - 57.5 uM) were added to the assay plate using the Kalypsis Pintool Robotic System equipped with 1536 pinheads.
4; Cells were then incubated for 24 hours at 37 degrees C prior to luminescence measurements.
5; In all cases, luminescence was measured using the Dual-Glo Luciferase Reporter Assay System (Promega) following the manufacturer's instructions.
6; Room temperature incubation.
7; Luminescence signal was obtained using the PerkinElmer ViewLux plate reader. Results were normalized to vehicle control (0% activity) and zero RLU (-100% activity).

| SMILES | activity change, negative = inhibition |
| --- | --- |
| O=C(Nc1ccc(F)cc1)c1cccc(N2CCCS2(=O)=O)c1 | inactive: 9.68% |
| Cc1cc(=O)n(C(C)C(=O)NCc2ccccc2Cl)c2c1c(C)nn2-c1ccccc1 (centres undefined) | inactive: -6.06% |
| Cc1ccc(C(C)C)c(OCC(=O)Nc2c(C(=O)c3ccc(F)cc3)oc3ccccc23)c1 | inactive: 14.2% |
| Cc1cc(O)c(C(c2ccccc2Cl)N2CCCCC2)c(=O)n1Cc1ccco1 (centres undefined) | inactive: -3.49% |
| CCc1ccc(C2N3CC4(C)CN2CC(c2ccccc2)(C3)C4=O)cc1 (centres undefined) | inactive: -12.2% |
| CCOC(=O)N1CCN([N+]([O-])=NOc2ccc([N+](=O)[O-])cc2C#N)CC1 | inactive: -22.4% |
| CCn1cc(C(=O)NCc2ccccc2)c(=O)c2cc(S(=O)(=O)N3CCOCC3)ccc21 | inactive: -14.5% |
| Cc1ccc(/C=C/c2onc(C)c2S(=O)(=O)N2CCC(C(=O)NCc3ccc(Cl)cc3)CC2)cc1 | inactive: -5.5% |
| CC(NC(=O)c1ccc(N2Cc3ccccc3Oc3ncccc32)s1)c1ccccc1 (centres undefined) | inactive: -18.6% |
| CC(C)CCCC(C)N (centres undefined) | inactive: 16.9% |
| CCOC(=O)C(C)NC(=O)c1cc2c(=O)[nH]c3ccc(C)cc3c2s1 (centres undefined) | inactive: -13.8% |
| Cc1c(Cl)cccc1NC(=O)C(=O)NCCc1csc(-c2cccc(F)c2)n1 | inactive: -12.8% |
| COc1ccc(NC(=O)c2ccc(-c3cccc(Cl)c3C)o2)cc1 | inactive: -0.479% |
| COc1ccc(-c2nc(CSc3nc4ncccc4[nH]3)c(C)o2)cc1OC | inactive: -22.7% |
| CC(NC(=O)Cc1ccc(NC(=O)N2CCCCc3ccccc32)cc1)c1ccccc1 (centres undefined) | inactive: -26.3% |
| CCOc1cccc2sc(NC(=O)c3ccc(S(=O)(=O)N4CCc5ccccc54)cc3)nc12 | inactive: -21.9% |
| CCc1cccc(C)c1NC(=O)C(CC)Sc1nc2ccncc2[nH]1 (centres undefined) | inactive: -21.5% |
| CCCN1CCN(CC2=C(C(=O)OCC)C(c3cccc(OC)c3OC)NC(=O)N2)CC1 (centres undefined) | inactive: 3.95% |
| CCCCc1nn2c(=O)cc(COC(=O)c3ccc(NC(=O)c4cccc(OC)c4)cc3)nc2s1 | inactive: -23% |
| CSc1ncc(C(=O)NCc2ccccc2Cl)c(C(F)(F)F)n1 | inactive: -7.35% |
| Cc1ccc(NC(=O)N2CCc3c(sc4c3CCCC4)C2c2ccccc2)cc1F (centres undefined) | inactive: -19.4% |
| CCOC(=O)CSc1nc2cc3c(cc2c(=O)n1CCCCCC(=O)NCc1ccc2c(c1)OCO2)OCO3 | inactive: -3.01% |
| Cc1cc(C)cc(NC(=O)N2CCN(C)c3ncccc32)c1 | inactive: -3.83% |
| Cc1ccc2c(CC(=O)Nc3ccc(S(=O)(=O)Nc4nc(C)cc(C)n4)cc3)coc2c1 | inactive: -29.7% |
| COc1cc(C2Nc3ccccc3-c3nnc(SCc4ccc(Cl)cc4)nc3O2)ccc1OCC(=O)O (centres undefined) | inactive: -3.49% [at 11.5 µM] |

| SMILES | activity change, negative = inhibition |
| --- | --- |
| CCOc1ccc(CNC(=O)CN2C(=O)CSc3ccc(S(=O)(=O)N4CCOCC4)cc32)cc1OC | inactive: -13% |
| CN(C)CCOC(c1ccccc1)c1ccc(Br)cc1 (centres undefined) | inactive: -10.7% |
| Cn1c(=O)cc(OCC(=O)N2CCN(c3ccccc3F)CC2)c2ccccc21 | inactive: -4.03% |
| Cc1cc2oc(C(=O)N(Cc3ccc(N(C)C)cc3)CC3CCCO3)c(C)c2cc1C (centres undefined) | inactive: -18.6% |
| O=C(CCCCn1c(=O)c2ccccc2n(Cc2ccccc2F)c1=O)NCc1ccc2c(c1)OCO2 | inactive: -10.8% |
| O=C(NCc1ccc(Cl)cc1)C1(c2cccs2)CCOCC1 | inactive: -15.2% |
| COc1ccc(-c2noc(-c3cc(C(C)C)[nH]n3)n2)cc1 | inactive: 46.3% |
| CCN1CCc2c(sc(NC(=O)CSc3ccccc3)c2-c2nc3ccccc3s2)C1 | inactive: -27.5% |
| COC(=O)C1=C(C)NC(C)=C(C(=O)OCCCN2CCC(c3ccccc3)(c3ccccc3)CC2)C1c1cccc([N+](=O)[O-])c1 (centres undefined) | inactive: -7.23% |
| CC(=O)c1cccc(Nc2cc(C)nc3nc(-c4ccccc4C)nn23)c1 | inactive: 0.627% |
| Cc1ccc(CNC(=O)C2CCCN(c3nc4c(C)cc(C)cc4s3)C2)cc1 (centres undefined) | inactive: 14.7% |
| COC(=O)c1ccccc1NC(=O)CCn1nc(C)c2c(C)n(-c3ccccc3)nc2c1=O | inactive: -3.29% |
| O=C(Nc1ccc(NC(=O)c2cccs2)cc1)c1ccc(Cl)cc1 | inactive: -0.584% |
| O=C(COc1ccccc1)NCCc1csc(-c2ccc(F)cc2)n1 | inactive: -19.1% |
| CC1(c2ccccc2)OC(C(=O)O)=CC1=O (centres undefined) | inactive: 2.36% |
| CN(C(=O)Cn1c(=O)n(Cc2ccc(C(=O)NCc3ccc4c(c3)OCO4)cc2)c(=O)c2ccccc21)c1ccccc1 | inactive: -21.9% |
| Cc1cccc(C)c1NC(=O)CN(CC(=O)O)CC(=O)O | inactive: 18.2% |
| COc1ccc(CNC(=O)CCc2nc3cccnc3n2Cc2ccc(OC)cc2)cc1 | inactive: 1.82% |
| CCCCOc1ccc(Cn2c(=O)oc3ccccc32)cc1 | inactive: 14.5% |
| COC(=O)c1ccc(NC(=O)c2nn(C)c3c2COc2ccccc2-3)cc1 | inactive: 11.6% |
| CCOc1ccc(OCC(=O)NCCS(=O)(=O)N2CCN(c3ccc(OC)cc3)CC2)cc1 | inactive: -15.1% |
| Cc1ccc(NC(=O)Cn2c(=O)n(CCc3ccccc3)c(=O)c3sc4ccccc4c32)cc1C | inactive: 5.68% |
| COc1ccccc1CNS(=O)(=O)c1cc(-c2cc(C)no2)ccc1C | inactive: -31.9% |
| O=C(NCc1cccc(Cl)c1)c1oc(=O)c2ccccc2c1-c1ccccc1 | inactive: -11.1% |
